# Test results reported in PubChem BioAssay AID1631 (National Center for Advancing Translational Sciences (NCATS), 2009).
# Among all 260,000 compounds or so, about 890 (0.34%) were called active. The inconclusive results got no clear call from the source; some entries with a clear call stand among them for comparison. Calls follow the shape of the dose curve; as a rule, active = well fitted activation curve with a large enough effect; inconclusive = small, poorly fitted or top-dose-only effect; inactive = no such curve, though single readings can be large or run the other way. No potency is given beside an inconclusive call; the fits are too rough.
# Target: Pyruvate kinase PKM (Homo sapiens) (UniProt P14618)
# UniProt P14618, sequence (P14618 whole entry, looked up, canonical isoform): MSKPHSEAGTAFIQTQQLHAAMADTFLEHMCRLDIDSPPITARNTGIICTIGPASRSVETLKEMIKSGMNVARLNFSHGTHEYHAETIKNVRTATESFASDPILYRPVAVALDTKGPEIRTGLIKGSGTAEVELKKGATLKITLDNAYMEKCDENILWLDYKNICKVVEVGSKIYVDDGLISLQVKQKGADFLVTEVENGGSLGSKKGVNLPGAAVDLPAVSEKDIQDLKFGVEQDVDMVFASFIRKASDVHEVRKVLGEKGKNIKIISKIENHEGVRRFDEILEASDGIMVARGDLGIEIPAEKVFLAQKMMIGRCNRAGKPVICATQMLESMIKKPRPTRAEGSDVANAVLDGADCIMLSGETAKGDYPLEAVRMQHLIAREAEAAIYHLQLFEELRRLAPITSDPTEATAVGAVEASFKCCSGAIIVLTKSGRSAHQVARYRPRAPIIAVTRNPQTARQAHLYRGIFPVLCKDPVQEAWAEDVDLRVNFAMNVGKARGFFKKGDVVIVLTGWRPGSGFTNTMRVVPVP
# Experiment: qHTS Assay for Activators of Human Muscle isoform 2 Pyruvate Kinase; also: nearly all actives have a fitted effect of over 55% in size
# Settings: purified PKM2, Kinase-Glo ATP luminescence; Potency: activation; series mostly up to 57.5 µM
# From the text: NIH Chemical Genomics Center [NCGC] Matthew G. Vander Heiden, M.D., Ph.D. [Harvard Medical School, 77 Avenue Louis Pasteur, Boston, MA 02115] MLPCN Grant: 1 R03 MH085679-01 NCGC Assay Overview: Human pyruvate kinase muscle 2 (hPK-M2) enzyme was supplied as a highly purified (>95% pure) preparation from Harvard Medical School and assayed for its ability to generate ATP from ADP using phosphoenolpyruvate (PEP) as a substrate. ATP generation was detected in a coupled reaction by luciferase-mediated luminescence, an ATP-dependent process. […] The enzyme was assayed at an intermediate level of activity to screen for both inhibitors and activators.
# NCGC Assay Protocol Summary: Three uL of substrate mix (at r.t.) in assay buffer (50 mM Imidazole pH7.2, 50 mM KCl, 7 mM MgCl2, 0.01% Tween 20, 0.05% BSA) was dispensed into white solid bottom 1,536 well microtiter plates so that the final concentrations of substrates in the assay were 0.1 mM ADP and 0.5 mM PEP. 23 nL of compound were delivered by a pin tool and 1 uL of enzyme mix in assay buffer (4 degree Celsius) was added. Plates were incubated at room temperature for 1 hour. Two uL of detection mix (Kinase-Glo, Promega; at 4 degree Celsius protected from light) was added and luminescence read by a ViewLux (Perkin Elmer) at 5 second exposure/plate. Data were normalized to the uninhibited and AC100 inhibition (no enzyme). To monitor activation, the first column contained a titration of the activator, NCGC00031955-01 (16-point 1:2 dilutions in duplicate starting at 57 uM) and the first 16 rows of column 4 contained 57 uM of NCGC00031955-01.
# Potency is read from the fitted curve at half-maximal effect; tags tell the direction and shape of the fitted curve.
row,SMILES,Potency
1,O=c1[nH]c(=O)n(C2CCCCCC2)c(O)c1C=NCCCN1CCOCC1,"inconclusive [rising, single point]"
2,COc1ccc(OCC(=O)N2CCN(Cc3nc4cc([N+](=O)[O-])ccc4n3C)CC2)cc1,inactive
3,Cc1n[nH]c(C)c1CCN,inactive
4,CCOC(=O)N1CCN(C(C)C(=O)c2c[nH]c3ccccc23)CC1 (stereo unspecified),"inconclusive [rising, single point]"
5,S=c1[nH]c2cc(Br)cnc2[nH]1,"inconclusive [rising, partial curve]"
6,C=CCn1c(O)c(/C=C2\C=Nc3ccccc32)c(=O)[nH]c1=O,"inconclusive [rising, single point]"
7,Cc1sc2c(c1C)C(c1cccs1)=NCC(=O)N2CC(=O)NCc1cccs1,inactive
8,CCOC(=O)C1CCN(/C=C2/C(=O)NC(=O)N(Cc3ccco3)C2=O)CC1,inactive
9,COc1cc([C@@H]2c3cc4c(cc3[C@@H](OC)[C@H]3COC(=O)[C@H]23)OCO4)cc(OC)c1O,active: 31.6 µM
10,CC(=O)c1c(C)n(CC2CCCO2)c2ccc(O)cc12 (stereo unspecified),inactive
11,CN(C)C(=O)Oc1ccc(C(=O)c2ccccc2)cc1,inactive
12,BrCC1C[n+]2c(SCc3ccccc3)nc3sc4c(c3c2O1)CCCC4 (stereo unspecified),"inconclusive [rising, partial curve]"
13,O=C(CCNC(=O)N1C[C@H]2C[C@@H](C1)c1cccc(=O)n1C2)Nc1ccc(F)cc1,"inconclusive [rising, single point]"
14,N#Cc1c(/N=C/c2c(O)n(Cc3ccco3)c(=O)[nH]c2=O)sc2c1CCCC2,inactive
15,CC(=NCc1ccc2c(c1)OCO2)c1c(O)[nH]c(=O)[nH]c1=O,"inconclusive [rising, partial curve]"
16,CC(=NCc1ccco1)c1c(O)n(-c2ccccc2)c(=O)[nH]c1=O,"inconclusive [rising, single point]"
17,Cc1ccccc1N1C(=O)NC(=O)/C(=C\c2cnn(-c3ccccc3)c2)C1=O,"inconclusive [rising, single point]"
18,Cc1ccc(N2C(=O)NC(=O)/C(=C/c3ccc(-c4ccc(C(=O)O)c(Cl)c4)o3)C2=O)cc1,active: 25.1 µM
19,Cc1ccc(N2C(=O)NC(=O)/C(=C\C=C\c3ccco3)C2=O)cc1C,"inconclusive [rising, partial curve]"
20,O=C1NC(=S)NC(=O)C1=Cc1cccc2cc3ccccc3cc12,"inconclusive [rising, partial curve]"
21,O=C1c2ccccc2C(=O)N1SC1CCCCC1,"inconclusive [rising, partial curve]"
22,C=CCN1CCc2cccc3c2[C@H]1Cc1ccc(O)c(O)c1-3,"inconclusive [rising, single point]"
23,O=C1NC(=O)C(=Cc2ccc(-c3ccccc3[N+](=O)[O-])o2)C(=O)N1,active: 17.8 µM

row,SMILES,Potency
1,CCc1ccc(N2C(=O)NC(=O)/C(=C/c3ccsc3)C2=O)cc1,"inconclusive [rising, partial curve]"
2,Cc1cccc(NC(=O)CSc2ccc(-c3ccco3)nn2)c1,"inconclusive [rising, partial curve]"
3,CC(=NCc1ccc2c(c1)OCO2)c1c(O)n(Cc2ccccc2)c(=O)[nH]c1=O,active: 25.1 µM
4,Cc1cccn2c(NCC3CCCO3)c(C(C)C)nc12 (stereo unspecified),inactive
5,O=c1c2ccccc2nc(/C=C/c2ccco2)n1-c1ccccc1O,active: 3.98 µM
6,Cc1ccc(N2C(=O)NC(=O)/C(=C\c3ccsc3)C2=O)cc1C,"inconclusive [rising, partial curve]"
7,COc1cc(/C=C/c2nc3ccccc3c(=O)n2-c2cccc(O)c2)ccc1O,"inconclusive [rising, single point]"
8,CCOC(=O)c1c(-n2c(C)cc(C=C3C(=O)NC(=S)NC3=O)c2C)sc2c1CCCC2,"inconclusive [rising, single point]"
9,Cc1ccc(N2C(=O)/C(=C/c3ccc(CN(CCC#N)S(C)(=O)=O)o3)C(=O)NC2=S)cc1C,"inconclusive [rising, single point]"
10,C=CCN1C(=O)NC(=O)/C(=C/C=C/c2ccccc2)C1=O,"inconclusive [rising, partial curve]"
11,COc1ccc(/C=C2/C(=O)NC(=O)N(Cc3ccco3)C2=O)cc1,"inconclusive [rising, partial curve, poor fit]"
12,O=c1[nH]ncc(NCCc2ccccc2)c1Cl,"inconclusive [rising, partial curve]"
13,Cc1cccc(C2=NCC(=O)N(CC(=O)NCc3ccco3)c3sc4c(c32)CCCC4)c1,"inconclusive [rising, single point]"
14,OC(c1cccc(Cl)c1)(c1cccc(Cl)c1)C1CN2CCC1CC2 (stereo unspecified),inactive
15,COc1ccc(N=C(C)c2c(O)[nH]c(=O)[nH]c2=O)cc1,inactive
16,CCCCn1c(O)c(C(CC)=NCc2ccc3c(c2)OCO3)c(=O)[nH]c1=O,inactive
17,CCOC(=O)C1(CCCc2ccccc2)CCN(C2CCC2)CC1,"inconclusive [rising, partial curve, poor fit]"
18,Oc1cc2c(cc1O)[C@H]1c3ccccc3CN[C@@H]1CC2,"inconclusive [rising, full curve]"
19,CC/C(=N\Nc1ccccc1)c1c(O)n(-c2ccc(OC)cc2)c(=O)[nH]c1=O,inactive
20,C/C1=C\[C@@H](C)C/C=C/[C@H]2[C@@H]3O[C@]3(C)[C@@H](C)[C@H]3[C@H](Cc4c[nH]c5ccccc45)NC(=O)[C@]32C(=O)/C=C/C(=O)[C@@H]1O,"inconclusive [rising, partial curve]"
21,Cc1[nH]c2c(Cl)cccc2c1CCN,inactive
22,O=C1NC(=O)N(c2ccccc2)C(=O)/C1=C\C=C\c1ccccc1,"inconclusive [rising, single point]"
23,CN(C)C1C(=O)C(C(N)=O)=C(O)C2(O)C(=O)C3=C(O)c4c(O)cccc4C(C)(O)C3CC12 (stereo unspecified),inactive
